Source: the supplement of paper PMC10126150
Sequences with one replicate were seen in a single cluster, so their values are uncertain.

Tested on: ATP
Test: switch fluorescence ratio, 500 uM ATP over buffer (Cy3 cluster intensity, sum of 5 cycles each) (fold (ratio)); higher = stronger signal-on switching upon ATP binding; sequences stand for … in TCGTCGGCAGCGTCAGATGTGTATAAGAGACAGTTTTTTTTTTTTTTTTTTTTTTTTT…TC
Details: aptamer strand: ATP DNA aptamer (quencher-CACCTGGGGGAGTATTGCGGAGGAAGG + anchor), 100 nM annealed; ATP concentration: 500 uM; one replicate
In short: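 Between each of five buffer/ATP cycles, the flow-cell was stripped with NaOH and re-annealed. Each cycle imaged Cy3-labelled switching-strand clusters, annealed to 100 nM quencher-labelled ATP aptamer on a modified Illumina MiSeq flow-cell, first in selection buffer and then after 15 min with 500 uM ATP at 22 °C. The fluorescence ratio is summed target-cycle over summed buffer-cycle Cy3 intensity per cluster, averaged per switch-domain sequence, with clusters outside 100-1000 RFU excluded.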
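Note: ATP exposure 15 min at 22 °C before imaging.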

| Sequence | switch fluorescence ratio |
| --- | --- |
| CAAAGTGAGG | 1 |
| GCTAGAGGTT | 0.981 |
| ACTGGGTATA | 0.999 |
| ATAGTATGA | 1 |
| AACCCAGTTT | 0.968 |
| GAGAGAATAT | 0.95 |
| ATTGCAACAC | 2.86 |
| AAGTATACT | 1.04 |
| ACGCACTGGT | 1.49 |
| TATGCAATTT | 1.02 |
| ATGCTAGAG | 0.958 |
| ATCCAGTAGC | 1.03 |
| CCAGAGGTGG | 0.998 |
| TACGCGAATC | 1.29 |
| GGTGTGCCAG | 1.04 |
| ATCAACCCA | 0.986 |
| TGTAAGATAA | 1.01 |
| CAGGCCTATA | 0.985 |
| TCCATGCATT | 1.13 |
| ACAACAGTCT | 1.08 |
| CCTGACAGCT | 1.1 |
| AATGCGGGGC | 1.04 |
| AGGGCTGTAT | 1.25 |
| GAATTCCCCG | 1.22 |
| AGTTAGCGGT | 0.978 |
| CCTGACCCAG | 1.11 |

| Sequence | switch fluorescence ratio |
| --- | --- |
| CCAGACTTAT | 0.978 |
| TGGAGGGCAT | 0.987 |
| TGACTGCGGA | 1.24 |
| CTAGGTATCT | 0.999 |
| ATGCGTGGAC | 0.939 |
| CGTCTAGTAT | 1.02 |
| CGTCTGAGAA | 0.984 |
| TCGCCTGGT | 0.986 |
| TCAGAATTAG | 1.02 |
| GAGAATACGC | 0.991 |
| CTCCCGAGGG | 1.01 |
| ACTTGTGAGT | 1.01 |
| AGTTACGTT | 1.04 |
| CTGACAGACA | 1.08 |
| GCCGCGCCGT | 1.01 |
| CCACGCGAGT | 1.31 |
| TTCGCTTTAT | 1.11 |
| AACGAAGAAA | 1.02 |
| ATTGTGTGAT | 0.971 |
| GGCATGTCCA | 1.04 |
| GTTATGGTG | 0.987 |
| GTATCTGTTT | 0.964 |
| TGTACTATCG | 0.991 |
| TCATTTGACA | 0.974 |
| TTGTCGTCCT | 1.02 |
| TTAGACGGGC | 1.02 |

| Sequence | switch fluorescence ratio |
| --- | --- |
| ATGGTTCATC | 1.04 |
| CTGTCGGAGG | 0.99 |
| TCTTGAGGTA | 1.04 |
| AATATTTGTA | 1 |
| GTTCCGCCCC | 2.42 |
| GAACGGACCT | 1.37 |
| GGCGGGATGA | 1.02 |
| CGCGTCGACC | 1.21 |
| CCCCAGTGGG | 1.99 |
| TCGCAACGCT | 1.2 |
| GTTATAGATT | 0.983 |
| GACTGGTTAG | 0.994 |
| CGTATCCGTG | 0.988 |
| TCCCCCCGGG | 2.38 |
| ACGTTCCCAA | 1.21 |
| TTCTGCACTG | 1.08 |
| CAGACATCCC | 0.993 |
| TTGATGAT | 0.982 |
| CGTAGACGAC | 1.01 |
| TGCGCGGGGG | 0.998 |
| TGATGGCAAA | 1.48 |
| CTGGCTAACT | 1.01 |
| CTGTGAGAAA | 0.984 |
| GATTGGCGAC | 0.917 |
| CGACGCCATT | 2.43 |
| CGATTTATTA | 0.991 |

| Sequence | switch fluorescence ratio |
| --- | --- |
| TAATAGGATT | 1 |
| CAGCTGAACC | 0.967 |
| AATGCCTGAA | 1.01 |
| GATGCGGGGT | 0.993 |
| TCATATACTA | 1 |
| GATAACATCC | 0.98 |
| ACTTCGGGAG | 1.05 |
| TTGGTGACAT | 0.993 |
| CTTTTCCGT | 1.06 |
| TCGGAGAAGT | 0.993 |
| TGGAGTGGCC | 1.07 |
| GTCTAGGGTG | 1.11 |
| ATGGCCGCAG | 1.15 |
| GCGTGTCGCT | 1.01 |
| GCCGCATCGG | 1.04 |
| AGGTGTTTGG | 1.03 |
| TGCTCAGAGG | 1.01 |
| AGGTGAAACG | 1.02 |
| TTTGCCCTAT | 1.01 |
| TATAAAGATT | 1 |
| GGGTTGCAGA | 0.977 |
| GTACTCCAGA | 1.1 |
| AGGGGGTTCA | 1.02 |
| AATTACAGGT | 1.03 |
| GCCTTTGGGC | 0.944 |
| GGTAACGATC | 0.997 |

| Sequence | switch fluorescence ratio |
| --- | --- |
| GCAGGGCTTC | 1 |
| CACAGTAGGT | 1.05 |
| ATTAGCCA | 0.936 |
| TTCTTAACGG | 0.964 |
| AGGATCTTCC | 1 |
| TATGACCCGG | 1.03 |
| GATTTCGGCA | 0.994 |
| GTGGGTCCGC | 1.05 |
| CCAAGATGCG | 0.989 |
| AGATATAGAT | 0.972 |
| ATGCAAATTT | 1.02 |
| GGTGAAAAAT | 1.03 |
| GGTTTCCGTC | 0.974 |
| TATGGTCGCG | 0.985 |
| CAGCCCTGGG | 0.998 |
| CATAATAGCC | 1.06 |
| GGATCTAAGG | 1.03 |
| TGACGGATAG | 0.968 |
| TTGTCTGGGA | 0.985 |
| GGGTAGTCAT | 0.998 |
| ACACCGGAAA | 1.04 |
| ATCGAGTATT | 1 |
| GGACGACGGG | 1.02 |
| ACGCTCATTT | 1.07 |
| CTAATCTTCT | 1.02 |
| GTGGATTAGC | 0.997 |

| Sequence | switch fluorescence ratio |
| --- | --- |
| CATGTTTACA | 0.976 |
| CCCTAGTCAC | 1.17 |
| TCGGGGCTAA | 1.06 |
| AAGACACAGC | 1.09 |
| CGATTTGCTG | 1.05 |
| TTATCCGGGG | 0.997 |
| ACGCCATCTC | 1.22 |
| TCTTGTAGT | 1.03 |
| AGGGCTTTTT | 0.981 |
| ACAGAGGAAG | 0.99 |
| ACTGCGCTAC | 2.74 |
| ATTATTCAGC | 1.01 |
| TTTACAAGAT | 1 |
| AGCCCGGGGT | 1.53 |
| AAAGGTCAA | 1.02 |
| TTAGACGGCA | 1.06 |
| CACAGGCCGA | 1.05 |
| CAGATTCTAA | 0.992 |
| GTTAACACTG | 1.03 |
| GCATTCTTCT | 0.986 |
| TCTATATTTG | 1.02 |
| CGGGGGTATC | 0.988 |
| GGTGGTCACT | 1.02 |
| CTAATTACCT | 1.27 |
| GACAAGGAAG | 1.01 |
| GGCATTGCAG | 1.01 |

| Sequence | switch fluorescence ratio |
| --- | --- |
| TAAAGCCGAG | 1 |
| AGAGTGTACT | 0.999 |
| ACGTCACTAA | 1.52 |
| CTGAGGATTG | 0.991 |
| AATTTTCATT | 0.973 |
| ACTTATATTG | 1.06 |
| GGGCTTCGAG | 0.965 |
| ACTCAATTGG | 0.996 |
| CGAAGAATCT | 0.996 |
| CATGTTATAT | 0.999 |
| TTGGCAAAA | 0.968 |
| TGGGGACT | 1.01 |
| GAGGATAAAC | 0.998 |
| GATCTCAACG | 0.963 |
| TTATCAAACG | 0.987 |
| GTTCATTAAG | 0.991 |
| GTTCTTTAGA | 0.998 |
| CTTCTAGAAT | 1 |
| GATAATTTTA | 1.03 |
| TGATCCACAG | 1.05 |
| TCCGGCACGG | 1 |
| ACGTGCTGGG | 0.963 |
| GTGCTACACG | 0.959 |
| ATATGTGAT | 1.03 |
| AGGGATCAG | 1.02 |
| GGGAACGCAT | 1.18 |

| Sequence | switch fluorescence ratio |
| --- | --- |
| TTTAAGTT | 0.915 |
| ACACACAAGG | 1.48 |
| GGGCGACGTC | 1.02 |
| GAGGTGGAG | 0.992 |
| CTTCAGGGTA | 1.05 |
| CAAGCCATAT | 1.05 |
| ACACGTCGCC | 1.06 |
| AGGCTGGCT | 0.977 |
| CCTTCCCGTG | 2.12 |
| GACAATCAAG | 0.998 |
| GAATGTGCCG | 1.01 |
| ACTGGAGTCA | 1.02 |
| GATCGTATTT | 0.986 |
| AGCATCTGTG | 0.998 |
| GGGCTCTGAT | 0.979 |
| CAAGAGGCTC | 0.98 |
| GCTGACACAT | 1.06 |
| CCTGGTTAGC | 1.02 |
| TCGTCGGCCA | 1.03 |
